Reference: the supplement of paper PMC9174493
The list shows a part of the results. Single values of this set are uncertain. Values with irradiation are relative to irradiated vehicle.

Test system: A549-Dual
Experiment: NF-kB reporter (SEAP) activity, viability-corrected, relative to vehicle (fold change vs vehicle); higher = more activation of STING-IRF / NF-kB immune response reporter
Details: 10 µM; irradiation: 8 Gy/4 fr
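Also: viability correction based on the alamar blue assay, with concentrations leaving 10% survival or less dropped.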

Row | SMILES | NF-kB reporter
1 | CC(C)C(=O)c1c(C(C)C)nn2ccccc12 [Ibudilast] | 0.878
2 | CCN(CC)CCNC(=O)c1cc(Cl)c(N)cc1OC.Cl [Metoclopramide HCl] | 0.812
3 | CC1(C)SC2C(NC(=O)C(C(=O)[O-])c3ccccc3)C(=O)N2C1C(=O)[O-].[Na+].[Na+] (stereo not given) [Carbenicillin disodium] | 1.11
4 | Cl.O=S(=O)(c1cccc2cnccc12)N1CCCNCC1 [Fasudil (HA-1077) HCl] | 0.654
5 | CC1(C(=O)O)CCC2(C)CCC3(C)C(=CC(=O)C4C5(C)CCC(O)C(C)(C)C5CCC43C)C2C1 (stereo not given) [Enoxolone] | 0.661
6 | O=C([O][Ca][O]C(=O)C(O)C(O)C(O)C(O)C(O)CO)C(O)C(O)C(O)C(O)C(O)CO (stereo not given) [Calcium Gluceptate] | 1.16
7 | C=C1CC/C=C(\C)CCC2C1CC2(C)C (stereo not drawn) [β-Caryophyllene] | 1.22
8 | CCC(c1ccccc1)c1c(O)c2ccccc2oc1=O (stereo not given) [Phenprocoumon] | 0.53
9 | O=C1CCc2ccc(OCCCCN3CCN(c4cccc(Cl)c4Cl)CC3)cc2N1 [Aripiprazole] | 0.744
10 | CCC1(C)CC(=O)NC1=O (stereo not given) [Ethosuximide] | 0.595
11 | CC(=O)Oc1c(C)c(C)c2c(c1C)CCC(C)(CCCC(C)CCCC(C)CCCC(C)C)O2 (stereo not given) [Vitamin E Acetate] | 0.86
12 | CCCCN1CCCCC1C(=O)Nc1c(C)cccc1C.Cl (stereo not given) [Bupivacaine HCl] | 0.664
13 | COc1ccnc(CS(=O)c2nc3cc(-n4cccc4)ccc3[n]2[Na])c1C (stereo not given) [Ilaprazole sodium] | 1.14
14 | CSc1ccc2c(c1)N(CCC1CCCCN1C)c1ccccc1S2.Cl (stereo not given) [Thioridazine hydrochloride] | 1.44
15 | CCCCCC(C)N (stereo not given) [2-Aminoheptane] | 1.52
16 | CCCCOC(=O)c1ccc(O)cc1 [Butylparaben] | 0.793
17 | CCCCCCCCCCCCCCC(=O)O [Pentadecanoic acid] | 0.888
18 | CC(CCC(=O)O)C1CCC2C3CCC4CC(O)CCC4(C)C3CC(O)C12C (stereo not given) [Deoxycholic acid] | 1.06
19 | OCCN1CCN(CCCN2c3ccccc3Sc3ccc(Cl)cc32)CC1 [Perphenazine] | 0.491
20 | Cl.N=C(N)c1ccccc1 [Benzamidine HCl] | 0.707

Row | SMILES | NF-kB reporter
21 | O.O.O.O.[Li][O]C(=O)CC(O)(CC(=O)[O][Li])C(=O)[O][Li] [Citric acid trilithium salt tetrahydrate] | 0.848
22 | C1CNCCN1 [Piperazine] | 0.758
23 | CC1(Cn2ccnn2)C(C(=O)O)N2C(=O)CC2S1(=O)=O (stereo not given) [Tazobactam] | 0.954
24 | CC1=C(/C=C/C(C)=C/C=C/C(C)=C/C=C/C=C(C)/C=C/C=C(C)/C=C/C2=C(C)CCCC2(C)C)C(C)(C)CCC1 [Beta Carotene] | 1.22
25 | CCN(CC)CCOc1ccc2c(c1)C(=O)c1cc(OCCN(CC)CC)ccc1-2.Cl.Cl [Tilorone dihydrochloride] | 1.35
26 | CCCCCCCN(CC)CCCC(O)c1ccc(NS(C)(=O)=O)cc1.CCCCCCCN(CC)CCCC(O)c1ccc(NS(C)(=O)=O)cc1.O=C(O)/C=C/C(=O)O (stereo not given) [Ibutilide Fumarate] | 0.877
27 | CC(C)(C)NC(=O)NC(C(=O)N1CC2C(C1C(=O)NC(CC1CCC1)C(=O)C(N)=O)C2(C)C)C(C)(C)C (stereo not given) [Boceprevir] | 0.685
28 | COc1ccc(NS(=O)(=O)c2ccc(N)cc2)nn1 [Sulfamethoxypyridazine] | 0.827
29 | C[C@H](N)C(=O)O [L-Alanine] | 1.46
30 | CN(Cc1ccc(C(C)(C)C)cc1)Cc1cccc2ccccc12 [Butenafine] | 0.9
31 | COCCCOc1ccnc(CS(=O)c2nc3ccccc3[n]2[Na])c1C (stereo not given) [Rebeprazole sodium] | 0.631
32 | CN(C)CCOC(C)(c1ccccc1)c1ccccn1.O=C(O)CCC(=O)O (stereo not given) [Doxylamine Succinate] | 0.888
33 | NS(=O)(=O)Cc1noc2ccccc12 [Zonisamide] | 0.766
34 | O=C(O)CSc1nnc(Br)n1-c1ccc(C2CC2)c2ccccc12 [Lesinurad] | 0.847
35 | Oc1cc(O)c2c(c1)OC(c1ccc(O)c(O)c1)C(OC1(c3ccc(O)c(O)c3)Oc3cc(O)cc(O)c3C(O)C1O)C2 (stereo not given) [Proanthocyanidins] | 0.776
36 | C=CC1(C)CC(OC(=O)CSCCN(CC)CC)C2(C)C(C)CCC3(CCC(=O)C32)C(C)C1O (stereo not given) [Tiamulin] | 0.782
37 | COC(=O)OCOc1c2n(ccc1=O)N(C1c3ccccc3SCc3c1ccc(F)c3F)C1COCCN1C2=O (stereo not given) [Baloxavir marboxil] | 0.51
38 | COc1cc(CNC(=O)CCCCCCC(C)C)ccc1O [Dihydrocapsaicin] | 0.56
39 | CCCCC(=O)N(Cc1ccc(-c2ccccc2-c2nnn[nH]2)cc1)C(C(=O)O)C(C)C.CCOC(=O)C(C)CC(Cc1ccc(-c2ccccc2)cc1)NC(=O)CCC(=O)O.[Na+].[Na+].[Na+] (stereo not given) [Sacubitril/valsartan (LCZ696)] | 0.742
40 | CCCCC(=O)OCC(=O)C1C(C)CC2C3CC(F)C4=CC(=O)C=CC4(C)C3(F)C(O)CC21C (stereo not given) [Diflucortolone valerate] | 0.399
